Test results taken from the supplement of paper PMC12217912.
Some of the results follow. Sequences were assembled here from the parent chain. Inactive controls read about 0.05.

B1: TEV protease; numbered along this chain (parent)
chain: MGESLFKGPRDYNPISSSICHLTNESDGHTTSLYGIGFGPFIITNKHLFRRNNGTLVVQSLHGVFKVKDTTTLQQHLVDGRDMIIIRMPKDFPPFPQKLKFREPQREERICLVTTNFQTKSMSSMVSDTSCTFPSGDGIFWKHWIQTKDGQCGSPLVSTRDGFIVGIHSASNFTNTNNYFTSVPKNFMELLTNQEAQQWVSGWRLNADSVLWGGHKVFMVKPEEPFQPVKEATQL

Variants of: B1
Assay: raw area under fraction-flipped curve 0-4 h after induction (AUC4h, not background-subtracted), DNA-recorder readout of cleavage of the substrate (dimensionless); higher = more cleavage of the substrate by the protease variant
Settings: temperature: 34 °C; time window: 0-4 h after rhamnose induction
Description: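 In vivo DNA recorder in E. coli TOP10(DE3) ΔrhaA at 34 °C. Each TEVp single-site mutant (parent TEVp 0) is paired with a single-site variant of the 7-mer TEVs (canonical ENLYFQ|S). The substrate sits between flexible linkers in a Bxb1-sfGFP-TEVs-SsrA fusion, so cleavage stabilises Bxb1 and speeds flipping of a recombination array, read by NGS. The value is the raw area under the fraction-flipped curve over 0-4 h after rhamnose induction (AUC4h), with ≥20 reads per time point. It is not background-subtracted; inactive controls average about 0.047.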
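Further: Bxb1 expression induced with 0.2% (w/v) L-rhamnose at OD600 near 0.5, cultures sampled hourly, flipped fraction per protease–substrate barcode pair counted by paired-end Illumina sequencing.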

Variant | area with substrate ENLAFQS | area with substrate ENLCFQS | area with substrate ENLEFQS | area with substrate ENLFFQS | area with substrate ENLHFQS | area with substrate ENLIFQS | area with substrate ENLKFQS | area with substrate ENLMFQS | area with substrate ENLNFQS | area with substrate ENLPFQS | area with substrate ENLQFQS | area with substrate ENLRFQS | area with substrate ENLSFQS | area with substrate ENLLFQS | area with substrate ENLVFQS | area with substrate ENLDFQS | area with substrate ENLGFQS | area with substrate ENLTFQS | area with substrate ENLWFQS
MGESLFKGPRDYNPISSSICHLTNESDGHTTSLYGIGFGPFIITNKHLFRRNNGTLVVQSLHGVFKVKDTTTLQQHLVDGRDMIIIRMPKDFPPFPQKLKFREPQREERICLVTTNFQTKSMSSMVSDTSCTFPSGDGIFWKHWIQTKDGQCGSPLVSTRDGFIVGIHSASNFTNTNNYFTSVPKNFMEWLTNQEAQQWVSGWRLNADSVLWGGHKVFMVKPEEPFQPVKEATQL [L190W] | 0.0648 | 0.0575 | 0.0783 | 0.0778 | 0.079 | 0.0828 | 0.0688 | 0.0653 | 0.0647 | 0.0585 | 0.0362 | 0.0607 | 0.0488 | – | – | – | – | – | –
MGESLFKGPRDYNPISSSICHLTNESDGHTTSLYGIGFGPFIITNKHLFRRNNGTLVVQSLHGVFKVKDTTTLQQHLVDGRDMIIIRMPKDFPPFPQKLKFREPQREERICLVTTNFQTKSMSSMVSDTSCTFPSGDGIFWKHWIQTKDGQCGSPLVSTRDGFIVGIHSASNFTNTNNYFTSVPKNFMELLTIQEAQQWVSGWRLNADSVLWGGHKVFMVKPEEPFQPVKEATQL [N193I] | 0.09 | 0.0487 | – | – | 0.077 | – | – | – | – | 0.0598 | 0.0806 | 0.0578 | 0.057 | 0.0708 | 0.0829 | – | – | – | –
MGESLFKGPRDYNPISSSICHLTNESDGHTTSLYGIGFGPFIITNKHLFRRNNGTLVVQSLHGVFKVKDTTTLQQHLVDGRDMIIIRMPKDFPPFPQKLKFREPQREERICLVTTNFQTKSMSSMVSDTSCTFPSGDGIFWKHWIQTKDGQCGSPLVSTRDGFIVGIHSASNFTNTNNYFTSVPKNFMELLTNPEAQQWVSGWRLNADSVLWGGHKVFMVKPEEPFQPVKEATQL [Q194P] | 0.0737 | – | 0.0575 | 0.0822 | 0.0587 | – | 0.0814 | – | 0.0639 | 0.073 | 0.0735 | – | 0.0683 | – | – | 0.0554 | 0.0846 | 0.0863 | –
MGESLFKGPRDYNPISSSICHLTNESDGHTTSLYGIGFGPFIITNKHLFRRNNGTLVVQSLHGVFKVKDTTTLQQHLVDGRDMIIIRMPKDFPPFPQKLKFREPQREERICLVTTNFQTKSMSSMVSDTSCTFPSGDGIFWKHWIQTKDGQCGSPLVSTRDGFIVGIHSASNFTNTNNYFTSVPKNFMELLTNQFAQQWVSGWRLNADSVLWGGHKVFMVKPEEPFQPVKEATQL [E195F] | 0.0625 | – | 0.0488 | 0.104 | – | – | 0.062 | – | – | 0.04 | 0.0822 | – | 0.0651 | 0.062 | 0.0798 | 0.0588 | 0.0471 | 0.0644 | 0.0558
MGESLFKGPRDYNPISSSICHLTNESDGHTTSLYGIGFGPFIITNKHLFRRNNGTLVVQSLHGVFKVKDTTTLQQHLVDGRDMIIIRMPKDFPPFPQKLKFREPQREERICLVTTNFQTKSMSSMVSDTSCTFPSGDGIFWKHWIQTKDGQCGSPLVSTRDGFIVGIHSASNFTNTNNYFTSVPKNFMELLTNQEHQQWVSGWRLNADSVLWGGHKVFMVKPEEPFQPVKEATQL [A196H] | 0.0766 | 0.0468 | 0.0641 | 0.0779 | 0.0683 | 0.0833 | 0.0702 | 0.072 | 0.0631 | 0.0625 | – | 0.0566 | 0.0532 | 0.0659 | 0.0807 | 0.065 | 0.058 | – | –
MGESLFKGPRDYNPISSSICHLTNESDGHTTSLYGIGFGPFIITNKHLFRRNNGTLVVQSLHGVFKVKDTTTLQQHLVDGRDMIIIRMPKDFPPFPQKLKFREPQREERICLVTTNFQTKSMSSMVSDTSCTFPSGDGIFWKHWIQTKDGQCGSPLVSTRDGFIVGIHSASNFTNTNNYFTSVPKNFMELLTNQEMQQWVSGWRLNADSVLWGGHKVFMVKPEEPFQPVKEATQL [A196M] | 0.0698 | 0.0782 | 0.0665 | 0.109 | 0.0841 | 0.114 | 0.0658 | – | 0.0645 | 0.0589 | 0.0635 | 0.0824 | – | – | – | 0.0554 | 0.0486 | 0.078 | –
MGESLFKGPRDYNPISSSICHLTNESDGHTTSLYGIGFGPFIITNKHLFRRNNGTLVVQSLHGVFKVKDTTTLQQHLVDGRDMIIIRMPKDFPPFPQKLKFREPQREERICLVTTNFQTKSMSSMVSDTSCTFPSGDGIFWKHWIQTKDGQCGSPLVSTRDGFIVGIHSASNFTNTNNYFTSVPKNFMELLTNQEQQQWVSGWRLNADSVLWGGHKVFMVKPEEPFQPVKEATQL [A196Q] | 0.0577 | 0.0561 | 0.0632 | 0.0891 | 0.0784 | 0.0939 | 0.0853 | – | 0.0355 | 0.073 | 0.0699 | – | 0.0637 | 0.0885 | 0.0942 | 0.0557 | – | – | –
MGESLFKGPRDYNPISSSICHLTNESDGHTTSLYGIGFGPFIITNKHLFRRNNGTLVVQSLHGVFKVKDTTTLQQHLVDGRDMIIIRMPKDFPPFPQKLKFREPQREERICLVTTNFQTKSMSSMVSDTSCTFPSGDGIFWKHWIQTKDGQCGSPLVSTRDGFIVGIHSASNFTNTNNYFTSVPKNFMELLTNQEAQQDVSGWRLNADSVLWGGHKVFMVKPEEPFQPVKEATQL [W199D] | 0.0618 | 0.0747 | 0.0631 | 0.0485 | – | 0.0664 | 0.0644 | 0.0618 | 0.0644 | 0.0777 | 0.0594 | – | 0.0834 | 0.0683 | 0.0638 | 0.066 | – | – | 0.0745
MGESLFKGPRDYNPISSSICHLTNESDGHTTSLYGIGFGPFIITNKHLFRRNNGTLVVQSLHGVFKVKDTTTLQQHLVDGRDMIIIRMPKDFPPFPQKLKFREPQREERICLVTTNFQTKSMSSMVSDTSCTFPSGDGIFWKHWIQTKDGQCGSPLVSTRDGFIVGIHSASNFTNTNNYFTSVPKNFMELLTNQEAQQWVIGWRLNADSVLWGGHKVFMVKPEEPFQPVKEATQL [S201I] | 0.0684 | 0.0727 | 0.057 | – | 0.0736 | 0.0658 | 0.0931 | 0.0574 | – | 0.0831 | – | 0.0698 | 0.0635 | – | 0.0943 | 0.0681 | 0.067 | 0.0691 | –
